# Measurements: the supplement of paper PMC9588766
# Structures can show the parent of a compound that is named as a salt. ± gives the standard deviation of the averaged measurements. The full ranking holds about 2,000 compounds; the median of “cell viability relative to DMSO control (compound alone)” is about 0.98, and the lowest 2% start at about 0.23. Some of the results follow.
# Test system: PDC-DUC18828
# Assay: cell viability relative to DMSO control (compound alone) (fraction); PDC-DUC18828 is a patient-derived cholangiocarcinoma cell line; higher = less growth inhibition
# Details: 1 µM; 72 h
# Protocol: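 Selleck Bioactive library screen in the patient-derived FGFR2-G3BP2 fusion-positive ICC cell line PDC-DUC18828 (500 cells/well). Each compound was tested at 1 uM alone, in triplicate, for 72 h. Viability was read by CellTiter-Glo and normalised to plate DMSO controls.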
row,SMILES,cell viability
1,C=CC(C)(C)c1cc(/C=C/C(=O)c2ccc(O)cc2)c(OC)cc1O [Licochalcone A],0.982 ± 0.039
2,Cc1ncc(Cl)cc1NCc1ccc(C(=O)N[C@@H](CC2CCCC2)C(=O)NC2CC2)s1,0.9531 ± 0.0022
3,O=C(CCCCCCC(=O)Nc1ccc([C@H]2O[C@@H](CSc3nc(-c4ccccc4)c(-c4ccccc4)o3)C[C@@H](c3ccc(CO)cc3)O2)cc1)NO [Tubacin],1.04 ± 0.028
4,COc1cc(C(C)=O)ccc1O [Apocynin],1.01 ± 0.042
5,Nc1cc(F)ccc1NC(=O)/C=C/c1cnn(C/C=C/c2ccccc2)c1,0.956 ± 0.02
6,CN(Cc1cnc2nc(N)nc(N)c2n1)c1ccc(C(=O)N[C@@H](CCC(=O)O)C(=O)O)cc1 [Methotrexate],0.85 ± 0.032
7,CCOc1ccc2nc3cc(N)ccc3c(N)c2c1 [Ethacridine lactate monohydrate],0.956 ± 0.062
8,O=C1NC(=O)/C(=C/c2ccc3c(c2)OC(F)(F)O3)S1,1.11 ± 0.051
9,O=c1[nH]cnc2c1ncn2[C@@H]1O[C@H](CO)[C@@H](O)[C@H]1O [Inosine],0.935 ± 0.029
10,CCOc1ccccc1OC(c1ccccc1)C1CNCCO1 (stereo not given) [Reboxetine mesylate],1.01 ± 0.059
11,COc1cc([C@@H]2c3cc4c(cc3[C@@H](O[C@@H]3O[C@@H]5CO[C@@H](c6cccs6)O[C@H]5[C@H](O)[C@H]3O)[C@H]3COC(=O)[C@H]23)OCO4)cc(OC)c1O [Teniposide],0.189 ± 0.021
12,Nc1nc(=S)c2ncn([C@H]3C[C@H](O)[C@@H](CO)O3)c2[nH]1,0.904 ± 0.054
13,O=c1ccc2ccccc2o1 [Coumarin],1.13 ± 0.069
14,Cc1nc(-c2cccnc2)sc1C(=O)Nc1ccccc1-c1cn2c(CN3CCOCC3)csc2n1,0.96 ± 0.042
15,CN(C)CCCN1c2ccccc2Sc2ccc(Cl)cc21 [Chlorpromazine HCl],0.949 ± 0.032
16,C[C@H](Nc1ncnc2[nH]cnc12)c1cc2ccc(F)cc2nc1-c1ccccn1,0.932 ± 0.028
17,Nc1ccc(C(=O)Nc2cccc(-c3nc(N4CCOCC4)c4oc5ncccc5c4n3)c2)cn1,0.729 ± 0.031
18,O=C(O)[C@H]1O[C@@H](Oc2cc3oc(-c4ccccc4)cc(=O)c3c(O)c2O)[C@H](O)[C@@H](O)[C@@H]1O [Baicalin],1.06 ± 0.031
19,Cn1cc(-c2ccncc2)c(-c2ccc(OCc3ccc4ccccc4n3)cc2)n1,0.958 ± 0.049
20,C=CC(=O)Nc1ccc(CN2C(=O)N(c3cc(OC)cc(OC)c3)Cc3cnc(Nc4ccc(N5CCN(C)CC5)cc4)nc32)cc1,0.798 ± 0.057
21,Cc1cc(C)c(S(=O)(=O)n2cc(C)cc2C)c(C)c1,0.965 ± 0.088
22,Cc1[nH]c2ccccc2c1CCNCc1ccc(/C=C/C(=O)NO)cc1 [Panobinostat (LBH589)],0.113 ± 0.0019
23,c1cncc(CN2CCC(n3ncc4c(N5CCOCC5)nc(-c5ccc6[nH]ccc6c5)nc43)CC2)c1,0.654 ± 0.039
24,COC1CCN(C(=O)c2cc(Cc3n[nH]c(=O)c4ccccc34)ccc2F)CC1,0.965 ± 0.031
25,CCCCN1CCCCC1C(=O)Nc1c(C)cccc1C (stereo not given) [Bupivacaine HCl],0.924 ± 0.054

row,SMILES,cell viability
1,CCOC(=O)c1[nH]c2cc(Cl)ccc2c1C(C(=O)NC(C)(C)C)N(C=O)Cc1ccc(Cl)cc1 (stereo not given),1.03 ± 0.054
2,Cc1ccc2c(=O)c3cccc(CC(=O)O)c3oc2c1C [DMXAA (Vadimezan)],1.02 ± 0.051
3,C=C1/C(=C\C=C2/CCC[C@]3(C)[C@@H]([C@H](C)/C=C/[C@H](C)C(C)C)CC[C@@H]23)C[C@@H](O)C[C@@H]1O [Doxercalciferol],0.996 ± 0.075
4,C[C@H]1O[C@@H](Oc2c(-c3cc(O)c(O)c(O)c3)oc3cc(O)cc(O)c3c2=O)[C@@H](O)[C@@H](O)[C@@H]1O [Myricitrin],1 ± 0.015
5,Cc1nc(-c2ccc(OCC(C)C)c(C#N)c2)sc1C(=O)O [Febuxostat],1.12 ± 0.062
6,Oc1cc2c(cc1O)[C@@H]1c3ccc(O)c(O)c3OC[C@]1(O)C2 [Hematoxylin],0.985 ± 0.044
7,CC(C(=O)O)c1ccc2c(c1)CC(=O)c1ccccc1S2 (stereo not given) [Zaltoprofen],0.876 ± 0.035
8,COc1ccc(CC2c3cc(OC)c(OC)cc3CC[N+]2(C)CCC(=O)OCCCCCOC(=O)CC[N+]2(C)CCc3cc(OC)c(OC)cc3C2Cc2ccc(OC)c(OC)c2)cc1OC (stereo not given) [Atracurium Besylate],1.02 ± 0.035
9,CC(=O)[C@H]1CC[C@H]2[C@@H]3CC=C4C[C@@H](O)CC[C@]4(C)[C@H]3CC[C@]12C [Pregnenolone],0.965 ± 0.03
10,CCOC(=O)c1c(CSc2ccccc2)n(C)c2cc(Br)c(O)c(CN(C)C)c12 [Arbidol HCl],0.995 ± 0.01
11,CCN1CCN(Cc2ccc(-c3cc4c(N[C@H](C)c5ccccc5)ncnc4[nH]3)cc2)CC1,0.976 ± 0.063
12,Cc1nc(Nc2ncc(C(=O)Nc3c(C)cccc3Cl)s2)cc(N2CCN(CCO)CC2)n1 [Dasatinib],0.43 ± 0.036
13,Cc1cc(Nc2nc(N[C@@H](C)c3ccc(F)cc3)c(C#N)cc2F)n[nH]1,0.37 ± 0.04
14,CCC(=O)Nc1cccc(Oc2nc(Nc3ccc(N4CCN(C)CC4)cc3OC)ncc2Cl)c1,1.05 ± 0.048
15,N#Cc1c(NC(=O)c2cccc3ccccc23)sc2c1CCCC2 [JNK Inhibitor IX],0.364 ± 0.043
16,C=CC(=O)Nc1cccc(Nc2nc(Nc3ccc(OCCOC)cc3)ncc2F)c1,0.708 ± 0.028
17,COC(=O)Nc1nc2cc([S+]([O-])c3ccccc3)ccc2[nH]1 (stereo not given) [Oxfendazole],0.985 ± 0.055
18,CCc1c(Cl)c(O)c(Cl)c(O)c1C(=O)O[C@H]1[C@H](O)[C@H](OC)[C@H](OC/C2=C\C=C\C[C@H](O)/C(C)=C/[C@H](CC)[C@@H](O[C@@H]3OC(C)(C)[C@@H](OC(=O)C(C)C)[C@H](O)[C@@H]3O)/C(C)=C/C(C)=C/C[C@@H]([C@@H](C)O)OC2=O)O[C@@H]1C [Fidaxomicin],0.908 ± 0.069
19,Nc1ccn([C@@H]2CS[C@H](CO)O2)c(=O)n1 [Lamivudine],0.948 ± 0.026
20,O=C1NCCCc2c1oc1ccc(O)cc21,0.983 ± 0.031
21,COc1ccccc1OCC(O)COC(N)=O (stereo not given) [Methocarbamol],1.05 ± 0.026
22,O=C(Nc1ccccc1)Nc1ccc(-c2ccc(C(=O)[C@@H]3CCC[C@H]3C(=O)O)cc2)cc1,1.03 ± 0.036
23,CN(C)C/C=C/C(=O)Nc1cc2c(Nc3ccc(F)c(Cl)c3)ncnc2cc1O[C@H]1CCOC1 [Afatinib (BIBW2992)],0.868 ± 0.049
24,CN(C)C/C=C/C(=O)Nc1cc2c(Nc3ccc(F)c(Cl)c3)ncnc2cc1O[C@H]1CCOC1 [Afatinib (BIBW2992) Dimaleate],0.859 ± 0.047
25,O=C1NC(=O)C(c2ccccc2)(c2ccccc2)N1 [Phenytoin],0.923 ± 0.035

row,SMILES,cell viability
1,CC(C)(O)c1ccccc1CC[C@@H](SCC1(CC(=O)O)CC1)c1cccc(/C=C/c2ccc3ccc(Cl)cc3n2)c1 [Montelukast Sodium],1.02 ± 0.036
2,COc1ccc(S(=O)(=O)N(CCO)c2ccccc2CN(C)C/C=C/c2ccc(Cl)cc2)cc1 [KN-93 Phosphate],1.1 ± 0.046
3,O=C(Nc1ccccc1Br)N[C@@H]1CCN(c2ccc(C(F)(F)F)cn2)C1,1.12 ± 0.029
4,O=C(NOCC(O)CO)c1cc(Br)c(F)c(F)c1Nc1ccc(I)cc1F (stereo not given),0.962 ± 0.017
5,CN(C)CC(c1ccc(O)cc1)C1(O)CCCCC1 (stereo not given) [Desvenlafaxine],0.998 ± 0.074
6,CN(C)CC(c1ccc(O)cc1)C1(O)CCCCC1 (stereo not given) [Desvenlafaxine Succinate],0.912 ± 0.028
7,C#CCC(Cc1cnc2nc(N)nc(N)c2n1)c1ccc(C(=O)N[C@@H](CCC(=O)O)C(=O)O)cc1 (stereo not given in full) [Pralatrexate],0.949 ± 0.034
8,O=C(C[S+]([O-])Cc1ccco1)NC/C=C\COc1cc(CN2CCCCC2)ccn1 (stereo not given) [Lafutidine],1.01 ± 0.028
9,CCN(CC)CCCC(C)Nc1nc(C)cc(Nc2ccc3nc(C)cc(N)c3c2)n1 (stereo not given),1 ± 0.026
10,O=C(c1ccccc1)c1ccc2n1CCC2C(=O)O (stereo not given) [Ketorolac],1.02 ± 0.021
11,COc1c(N2CCNC(C)C2)c(F)cc2c(=O)c(C(=O)O)cn(C3CC3)c12 (stereo not given) [Gatifloxacin],0.9603 ± 0.0022
12,CN(C)Cc1ccc(S(=O)(=O)n2ccc(/C=C/C(=O)NO)c2)cc1 [Resminostat],1.05 ± 0.058
13,Nc1ncnc2n[nH]c(Nc3ccc(F)cc3)c12,0.956 ± 0.014
14,CC[C@H](C)C[C@H](C)CCCCCCCCC(=O)N[C@H]1C[C@@H](O)[C@@H](NCCN)NC(=O)[C@@H]2[C@@H](O)CCN2C(=O)[C@H]([C@H](O)CCN)NC(=O)[C@H]([C@H](O)[C@@H](O)c2ccc(O)cc2)NC(=O)[C@@H]2C[C@@H](O)CN2C(=O)[C@H]([C@@H](C)O)NC1=O [Caspofungin Acetate],0.883 ± 0.03
15,CCn1cc(NC(=S)Nc2cc(Cl)ccc2OC)c(C(N)=O)n1,1.03 ± 0.029
16,c1ccc(CN(CC2=NCCN2)c2ccccc2)cc1 [Antazoline HCl],1.03 ± 0.068
17,CN(C)CC/C=C1/c2ccccc2COc2ccc(CC(=O)O)cc21 [Olopatadine HCl],1.02 ± 0.058
18,CCCCCCCCCCCC[N+](C)(C)CCOc1ccccc1 [Domiphen Bromide],1.01 ± 0.039
19,Cc1ccc(-n2nc(C(C)(C)C)cc2NC(=O)Nc2ccc(OCCN3CCOCC3)c3ccccc23)cc1 [BIRB 796 (Doramapimod)],1.07 ± 0.031
20,Cc1cc(OCc2nnc(SC3CCCC3)n2-c2cccnc2)ccc1-c1ccc(S(C)(=O)=O)cc1,0.864 ± 0.023
21,CNC(=O)c1ccc(C)c(-n2c(C)cc(OCc3ccc(F)cc3F)c(Br)c2=O)c1,0.902 ± 0.021
22,CC(C)C[C@H](NC(=O)CNC(=O)c1cc(Cl)ccc1Cl)B1OC(=O)C(CC(=O)O)(CC(=O)O)O1,0.0219 ± 0.0016
23,CCN(CC)CCCCNc1ncc2cc(-c3cc(OC)cc(OC)c3)c(NC(=O)NC(C)(C)C)nc2n1,0.759 ± 0.044
24,CC[C@@H](CO)NCCN[C@@H](CC)CO [Ethambutol HCl],0.983 ± 0.018
25,CCCOc1ccc(C(=O)OCCN(CC)CC)cc1N [Proparacaine HCl],0.936 ± 0.018
